Assay results as given in publication PMC9150114, “Itavastatin and resveratrol increase triosephosphate isomerase protein in a newly identified variant of TPI deficiency” (Disease Models & Mechanisms, 2022).

Molecular target: the molecule itself
Experiment: SEC; analytical S200 gel filtration, TPI at 1.5 mg/ml for each variant, 20 mM Tris-HCl pH 8, 200 mM NaCl, 1 mM beta-ME

| Protein | stoichiometry N | binding result |
| --- | --- | --- |
| human triosephosphate isomerase Q181P (enzyme, triosephosphate isomerase, human, patient variant p.Q181P (c.542A>C); Variant found in patients; also called TPI^Q181P; hTPI^Q181P) not shown | 2 |  |
| human triosephosphate isomerase E105D (enzyme, triosephosphate isomerase, human, common patient variant p.E105D (c.315G>C); Variant found in patients; also called TPI^E105D; E104D (classical numbering)) not shown |  | binds |
